Source: patent US7186855B2, “Prodrugs of GABA analogs, compositions and uses thereof” (Xenoport, Inc., priority 2001, dated 2007)
At least one compound was matched to its structure with a doubt left. Some results were stated once for a whole list of compounds, not compound by compound.

Assays:
Caco-2 cells = assay: In vitro determination of Caco-2 cellular permeability of prodrugs; conditions: Caco-2 monolayer, pH 6.5 apical / pH 7.4 basolateral, prodrug 200 μM, efflux pump inhibitors present
[1] = Sustained release of gabapentin following prodrug administration using osmotic mini-pump devices in beagle dogs; assay type: in vivo; conditions: oral Alzet mini-osmotic pump, dose equivalent to 10 mg gabapentin per kg

Structure (SMILES) | Papp (apical to basolateral) (Caco-2 cells) | Papp (basolateral to apical) (Caco-2 cells) | gabapentin concentration in plasma at 12 hours post-dosing relative to gabapentin itself in the Alzet device [1]
CCC(=O)OC(OC(=O)NCC1(CC(=O)O)CCCCC1)C(C)C (stereo not drawn) [(80), 1-{[(α-Propanoyloxyisobutoxy)carbonyl]aminomethyl}-1-Cyclohexane Acetic Acid] | 66.2 ×10⁻⁶ cm/s | 8.75 ×10⁻⁶ cm/s | –
CC(C)(C)C(=O)OCOC(=O)NCC1(CC(=O)O)CCCCC1 [(51), 1-{[(α-Pivaloyloxymethoxy)carbonyl]aminomethyl}-1-Cyclohexane Acetic Acid] | 106 ×10⁻⁶ cm/s | 12.5 ×10⁻⁶ cm/s | –
CCCC(=O)OC(CCC)OC(=O)NCC1(CC(=O)O)CCCCC1 (stereo not drawn) [(71), 1-{[(α-Butanoyloxybutoxy)carbonyl]aminomethyl}-1-Cyclohexane Acetic Acid] | 81 ×10⁻⁶ cm/s | 19.9 ×10⁻⁶ cm/s | –
CC(OC(=O)NCC1(CC(=O)O)CCCCC1)OC(=O)C(C)(C)C (stereo not drawn) [(78), 1-{[(α-Pivaloxyethoxy)carbonyl]aminomethyl}-1-Cyclohexane Acetic Acid] | 137 ×10⁻⁶ cm/s | 24.6 ×10⁻⁶ cm/s | –
CC(=O)OC(OC(=O)NCC1(CC(=O)O)CCCCC1)c1ccccc1 (stereo not drawn) [(62), 1-{[(α-Acetoxybenzyloxy)carbonyl]aminomethyl}-1-Cyclohexane Acetic Acid] | 21 ×10⁻⁶ cm/s | 6.4 ×10⁻⁶ cm/s | –
CCCC(=O)OC(OC(=O)NCC1(CC(=O)O)CCCCC1)C(C)C (stereo not drawn) [(81), 1-{[(α-Butanoyloxyisobutoxy)carbonyl]aminomethyl}-1-Cyclohexane Acetic Acid] | 86.5 ×10⁻⁶ cm/s | 12.7 ×10⁻⁶ cm/s | –
CC(OC(=O)NCC1(CC(=O)O)CCCCC1)OC(=O)C(C)C (stereo not drawn) [(77), 1-{[(α-Isobutanoyloxyethoxy)carbonyl]aminomethyl}-1-Cyclohexane Acetic Acid] | – | – | greater than 2 fold
CCCC(OC(C)=O)OC(=O)NCC1(CC(=O)O)CCCCC1 (stereo not drawn) [(70), 1-{[(α-Acetoxybutoxy)carbonyl]aminomethyl}-1-Cyclohexane Acetic Acid] | 17.8 ×10⁻⁶ cm/s | 1.68 ×10⁻⁶ cm/s | –
CC(C)C(OC(=O)NCC1(CC(=O)O)CCCCC1)OC(=O)C(C)(C)C (stereo not drawn) [(83), 1-{[(α-Pivaloxyisobutoxy)carbonyl]aminomethyl}-1-Cyclohexane Acetic Acid] | 12.9 ×10⁻⁶ cm/s | 44.8 ×10⁻⁶ cm/s | –
CC(C)C(=O)OC(OC(=O)NCC1(CC(=O)O)CCCCC1)C(C)C (stereo not drawn) [(82), 1-{[(α-Isobutanoyloxyisobutoxy)carbonyl]aminomethyl}-1-Cyclohexane Acetic Acid] | 125 ×10⁻⁶ cm/s | 18.2 ×10⁻⁶ cm/s | –
CC(C)C(=O)OC(C)(C)OC(=O)NCC1(CC(=O)O)CCCCC1 [(90), 1-{[(α-Isobutanoyloxyisopropoxy)carbonyl]aminomethyl}-1-Cyclohexane Acetic Acid] | 92.2 ×10⁻⁶ cm/s | 5.75 ×10⁻⁶ cm/s | –
CCCC(=O)OC(C)(C)OC(=O)NCC1(CC(=O)O)CCCCC1 [(89), 1-{[(α-Butanoyloxyisopropoxy)carbonyl]aminomethyl}-1-Cyclohexane Acetic Acid] | 58.5 ×10⁻⁶ cm/s | 2.34 ×10⁻⁶ cm/s | –
